± gives the standard deviation of the averaged measurements. Laboratory Escherichia coli strains with one amino-acid change in an essential protein, pooled on minimal glucose agar with carbenicillin or gentamicin at twice the control MIC (plus kanamycin and chloramphenicol for the plasmids), 48 h. Fold change of barcode share against drug-free plates; higher = less susceptible. Active = above 20 in both replicates (the paper's putatively resistant). '<' = one read or none on drug, '>' = one read or none on a drug-free plate. Shares are relative, so most strains fall below 1 when a few take over. Listed are strains with at least 15 reads on both drug-free plates, and hits; most hits rest on fewer reference reads. Replicate rank correlation about 0.5. Edits are read from barcodes.
B1: thrB; numbered along this chain (parent)
chain: MVKVYAPASSANMSVGFDVLGAAVTPVDGALLGDVVTVEAAETFSLNNLGRFADKLPSEPRENIVYQCWERFCQELGKQIPVAMTLEKNMPIGSGLGSSACSVVAALMAMNEHCGKPLNDTRLLALMGELEGRISGSIHYDNVAPCFLGGMQLMIEENDIISQQVPGFDEWLWVLAYPGIKVSTAEARAILPAQYRRQDCIAHGRHLAGFIHACYSRQPELAAKLMKDVIAEPYRERLLPGFRQARQAVAEIGAVASGISGSGPTLFALCDKPETAQRVADWLGKNYLQNQEGFVHICRLDTAGARVLEN
B2: ftsL; numbered along this chain (parent)
chain: MISRVTEALSKVKGSMGSHERHALPGVIGDDLLRFGKLPLCLFICIILTAVTVVTTAHHTRLLTAQREQLVLERDALDIEWRNLILEENALGDHSRVERIATEKLQMQHVDPSQENIVVQK

Variants of: B1
Assay: barcode share on antibiotic plates over drug-free plates; higher = less susceptible
Settings: with Escherichia coli (laboratory strain); antibiotic: carbenicillin; 2× MIC (3.1 µg/mL)
Protocol: (§1)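 A pool of E. coli strains, each edited to carry one amino-acid change in an essential protein, was grown for 48 h on minimal glucose agar with or without antibiotic; strain barcodes were sequenced; mean of two replicates.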

I297A was tested. Which “fold change of barcode share” value did it give?
Its value is 1.15 ± 1.1.

With I297W as the variant, how does the “fold change of barcode share” value read?
Its value is 0.763 ± 0.14.

I297P was tested. Which “fold change of barcode share” value did it give?
The value was 0.438 ± 0.31.

How did the “fold change of barcode share” value turn out when F267W was run?
The value was 0.642 ± 0.32.

Which “fold change of barcode share” value does the source give for F267A here?
The value was 0.585 ± 0.091.

Which “fold change of barcode share” value does the source give for F267Q here?
The value was 0.866 ± 0.26.

How did the “fold change of barcode share” value turn out when L20D was run?
The value was > 55.8 [active].

L20Q was tested. Which “fold change of barcode share” value did it give?
Its value is 5.07 ± 1.9.

For L20W, which “fold change of barcode share” value is on record?
The value was 1.3996 ± 0.00019.

How did the “fold change of barcode share” value turn out when L20A was run?
Its value is 1.22 ± 0.21.

With V295A as the variant, how does the “fold change of barcode share” value read?
The value was 0.393 ± 0.22.

Which “fold change of barcode share” value does the source give for V104D here?
The value was 11 ± 2.1.

Which “fold change of barcode share” value does the source give for V104W here?
Its value is 17.6 ± 10.

For V104A, which “fold change of barcode share” value is on record?
Its value is 0.759 ± 0.034.

Which “fold change of barcode share” value does the source give for V104Q here?
The value was 18.1 ± 13.

For V104P, which “fold change of barcode share” value is on record?
The value was 15.9 ± 8.2.

For M108W, which “fold change of barcode share” value is on record?
The value was 0.669 ± 0.063.

For M108Q, which “fold change of barcode share” value is on record?
Its value is 1 ± 0.071.

For M108A, which “fold change of barcode share” value is on record?
The value was 0.797 ± 0.21.

With M108D as the variant, how does the “fold change of barcode share” value read?
Its value is 0.738 ± 0.073.

M108P was tested. Which “fold change of barcode share” value did it give?
Its value is 2.84 ± 0.91.

L107W was tested. Which “fold change of barcode share” value did it give?
The value was 0.837 ± 0.14.

L107Q was tested. Which “fold change of barcode share” value did it give?
Its value is 1.0315 ± 0.00058.

With L107A as the variant, how does the “fold change of barcode share” value read?
Its value is 0.756 ± 0.17.

With L107P as the variant, how does the “fold change of barcode share” value read?
The value was 1.39 ± 0.21.

Same assay, conditions: with Escherichia coli (laboratory strain); antibiotic: gentamicin; 2× MIC (MIC 0.45 µg/mL)

For I297A, which “fold change of barcode share” value is on record?
Its value is 0.0201 ± 0.011.

Which “fold change of barcode share” value does the source give for I297P here?
Its value is under 0.0185.

For F267W, which “fold change of barcode share” value is on record?
Its value is 0.012 ± 0.0057.

F267A was tested. Which “fold change of barcode share” value did it give?
Its value is 0.00808 ± 0.0049.

Which “fold change of barcode share” value does the source give for F267Q here?
Its value is 0.00736 ± 0.0013.

With L20W as the variant, how does the “fold change of barcode share” value read?
The value was 0.232 ± 0.27.

How did the “fold change of barcode share” value turn out when L20A was run?
The value was 0.0269 ± 0.015.

V104A was tested. Which “fold change of barcode share” value did it give?
The value was 0.0203 ± 0.016.

How did the “fold change of barcode share” value turn out when M108W was run?
The value was 0.0145 ± 0.00079.

Which “fold change of barcode share” value does the source give for M108Q here?
Its value is 0.012 ± 0.0024.

For M108A, which “fold change of barcode share” value is on record?
The value was 0.00746 ± 0.0061.

Which “fold change of barcode share” value does the source give for M108D here?
The value was 0.00908 ± 0.0071.

M108P was tested. Which “fold change of barcode share” value did it give?
The value was 0.0413 ± 0.042.

Which “fold change of barcode share” value does the source give for F210W here?
The value was under 0.0158.

For L107W, which “fold change of barcode share” value is on record?
The value was 0.0354 ± 0.043.

For L107Q, which “fold change of barcode share” value is on record?
The value was 0.0168 ± 0.015.

How did the “fold change of barcode share” value turn out when L107A was run?
The value was 0.00859 ± 0.0036.

For L107P, which “fold change of barcode share” value is on record?
The value was 0.0144 ± 0.0066.

Variants of: B2
Assay: as above
Settings: with Escherichia coli (laboratory strain); antibiotic: carbenicillin; 2× MIC (3.1 µg/mL)
Protocol: as §1

How did the “fold change of barcode share” value turn out when I47A was run?
Its value is 0.443 ± 0.1.

Which “fold change of barcode share” value does the source give for I47P here?
The value was 0.278 ± 0.083.

Which “fold change of barcode share” value does the source give for I47D here?
The value was 0.426 ± 0.2.

With I47W as the variant, how does the “fold change of barcode share” value read?
Its value is 0.355 ± 0.013.

Which “fold change of barcode share” value does the source give for I47Q here?
The value was 0.294 ± 0.019.

How did the “fold change of barcode share” value turn out when L42P was run?
The value was 0.529 ± 0.26.

For L42Q, which “fold change of barcode share” value is on record?
The value was 0.176 ± 0.019.

Which “fold change of barcode share” value does the source give for L42D here?
The value was 0.174 ± 0.037.

For L42A, which “fold change of barcode share” value is on record?
Its value is 0.184 ± 0.065.

With L42W as the variant, how does the “fold change of barcode share” value read?
The value was 0.457 ± 0.27.

How did the “fold change of barcode share” value turn out when I46D was run?
Its value is 0.196 ± 0.13.

For I46P, which “fold change of barcode share” value is on record?
Its value is 0.292 ± 0.04.

How did the “fold change of barcode share” value turn out when I46Q was run?
The value was 0.289 ± 0.013.

I46W was tested. Which “fold change of barcode share” value did it give?
The value was 0.2832 ± 0.002.

For I46A, which “fold change of barcode share” value is on record?
The value was 0.266 ± 0.07.

With V51D as the variant, how does the “fold change of barcode share” value read?
The value was 0.164 ± 0.034.

How did the “fold change of barcode share” value turn out when V51Q was run?
Its value is 0.337 ± 0.02.

Which “fold change of barcode share” value does the source give for V51W here?
The value was 0.277 ± 0.023.

Which “fold change of barcode share” value does the source give for V51A here?
Its value is 0.204 ± 0.1.

How did the “fold change of barcode share” value turn out when V51P was run?
Its value is 0.385 ± 0.32.

How did the “fold change of barcode share” value turn out when F43D was run?
Its value is 0.273 ± 0.11.

F43W was tested. Which “fold change of barcode share” value did it give?
The value was 0.216 ± 0.074.

How did the “fold change of barcode share” value turn out when F43Q was run?
The value was 0.324 ± 0.11.

Which “fold change of barcode share” value does the source give for F43P here?
Its value is 0.136 ± 0.035.

How did the “fold change of barcode share” value turn out when F43A was run?
The value was 0.309 ± 0.0034.

How did the “fold change of barcode share” value turn out when L48P was run?
Its value is 0.307 ± 0.17.

With L48W as the variant, how does the “fold change of barcode share” value read?
Its value is 0.419 ± 0.14.

How did the “fold change of barcode share” value turn out when L48A was run?
Its value is 0.316 ± 0.047.

Which “fold change of barcode share” value does the source give for L48D here?
The value was 0.34 ± 0.051.

For L48Q, which “fold change of barcode share” value is on record?
Its value is 0.184 ± 0.062.

How did the “fold change of barcode share” value turn out when I44W was run?
The value was 0.255 ± 0.0036.

I44P was tested. Which “fold change of barcode share” value did it give?
The value was 0.314 ± 0.096.

With I44A as the variant, how does the “fold change of barcode share” value read?
Its value is 0.361 ± 0.007.

Same assay, conditions: with Escherichia coli (laboratory strain); antibiotic: gentamicin; 2× MIC (MIC 0.45 µg/mL)

Which “fold change of barcode share” value does the source give for I47A here?
The value was 0.00959 ± 0.011.

How did the “fold change of barcode share” value turn out when I47P was run?
Its value is 0.00537 ± 0.0035.

Which “fold change of barcode share” value does the source give for I47D here?
The value was under 0.00755.

For I47W, which “fold change of barcode share” value is on record?
Its value is 0.0121 ± 0.012.

Which “fold change of barcode share” value does the source give for I47Q here?
The value was 0.00586 ± 0.0033.

Which “fold change of barcode share” value does the source give for L42P here?
The value was under 0.0118.

With L42Q as the variant, how does the “fold change of barcode share” value read?
Its value is under 0.00778.

L42D was tested. Which “fold change of barcode share” value did it give?
Its value is under 0.0101.

For L42A, which “fold change of barcode share” value is on record?
Its value is under 0.00956.

How did the “fold change of barcode share” value turn out when L42W was run?
The value was under 0.00607.

Which “fold change of barcode share” value does the source give for I46D here?
Its value is 0.00636 ± 0.0027.

Which “fold change of barcode share” value does the source give for I46P here?
Its value is 0.00378 ± 0.0018.

For I46Q, which “fold change of barcode share” value is on record?
Its value is under 0.003.

Which “fold change of barcode share” value does the source give for I46W here?
Its value is 0.0142 ± 0.015.

For I46A, which “fold change of barcode share” value is on record?
Its value is under 0.00208.

With V51D as the variant, how does the “fold change of barcode share” value read?
Its value is 0.00652 ± 0.0043.

V51Q was tested. Which “fold change of barcode share” value did it give?
The value was under 0.00965.

With V51W as the variant, how does the “fold change of barcode share” value read?
Its value is under 0.00552.

How did the “fold change of barcode share” value turn out when V51A was run?
Its value is under 0.00839.

How did the “fold change of barcode share” value turn out when V51P was run?
Its value is under 0.00481.

F43D was tested. Which “fold change of barcode share” value did it give?
The value was under 0.00472.

For F43W, which “fold change of barcode share” value is on record?
The value was 0.021 ± 0.02.

With F43Q as the variant, how does the “fold change of barcode share” value read?
Its value is 0.0282 ± 0.024.

Which “fold change of barcode share” value does the source give for F43P here?
The value was under 0.00822.

Which “fold change of barcode share” value does the source give for F43A here?
The value was under 0.00645.

Which “fold change of barcode share” value does the source give for L48P here?
The value was 0.00752 ± 0.0027.

L48W was tested. Which “fold change of barcode share” value did it give?
The value was under 0.00401.

Which “fold change of barcode share” value does the source give for L48A here?
The value was under 0.00301.

With L48D as the variant, how does the “fold change of barcode share” value read?
The value was under 0.00474.

Which “fold change of barcode share” value does the source give for L48Q here?
Its value is 0.0128 ± 0.0041.

How did the “fold change of barcode share” value turn out when I44W was run?
Its value is 0.294 ± 0.41.

For I44P, which “fold change of barcode share” value is on record?
Its value is under 0.00586.

With I44A as the variant, how does the “fold change of barcode share” value read?
The value was 0.0155 ± 0.0086.

Reference: the supplement of paper PMC11876631
